Laboratory results taken from PubChem BioAssay AID2100 (National Center for Advancing Translational Sciences (NCATS), 2009).
“And” between values parts separate entries of the source, which are not always exact repeats. Equal entries are not always repeated. Hit rate of the full screen: of about 300,000 compounds, about 1,200 (0.4%) were called active. Inconclusive means that the source gave no clear call. Such entries were picked first, then a sample of the others. Calls follow the shape of the dose curve; as a rule, active = well fitted inhibition curve with a large enough effect; inconclusive = small, poorly fitted or top-dose-only effect, or another doubt; inactive = no such curve, though single readings can be large or run the other way. A potency beside an inconclusive call is a rough fit, not a confirmed value.

Molecular target: Lysosomal alpha-glucosidase (Homo sapiens) (UniProt P10253)
Assay: qHTS Assay for Inhibitors and Activators of Human alpha-Glucosidase Cleavage of Glycogen
Conditions: recombinant GAA, glycogen substrate, Amplex Red glucose oxidase fluorescence; series mostly up to 76.4 µM
How it was run: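 Recombinant enzyme (4 nM final) with compounds titrated up to 77 uM and bovine liver glycogen (30 ug) in citrate pH 5.0, 0.01% Tween-20, 37 C 40 min. Released glucose detected by Amplex Red/glucose oxidase (Ex 573/Em 610); AC50 from Hill fits.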
Potency is read from the fitted curve at half-maximal effect.

| SMILES | Potency |
| --- | --- |
| COC(=O)c1[nH]c2ccccc2c1NS(=O)(=O)c1ccc(F)c(C)c1 | inconclusive: 12.6 µM [inhibitor, partial curve] |
| CCC1=NN(C(=O)c2ccc(C)cc2)C(O)(c2ccc(Br)cc2)C1 (configuration not stated) | inconclusive: 28.2 µM [inhibitor, partial curve] |
| COc1cc(/C=C(\CC(=O)O)c2nc3ccccc3s2)cc(OC)c1O | inconclusive: 24.9 µM [inhibitor, single point] |
| CCOC(=O)c1c(-c2cccs2)csc1NC(=O)c1ccncc1 | inactive |
| CCN(CC)CCCNc1oc(/C=C/c2ccccc2)nc1C#N | inconclusive: 12.6 µM [inhibitor, partial curve] |
| COC(=O)c1[nH]c2ccc(C)cc2c1NS(=O)(=O)c1ccc(F)c(C)c1 | active: 17.8 µM |
| Oc1cccc(-c2nc3ncccn3c2Nc2cccc(C(F)(F)F)c2)c1 | inconclusive: 15.8 µM [inhibitor, partial curve] |
| CC1=C(C#N)C(c2ccc(O)cc2)C2=C(CC(C)(C)CC2=O)N1 (configuration not stated) | inactive |
| CCOC(=O)c1c(CSc2ccc(C)cc2)n(C)c2cc(Br)c(O)c(CN(C)C)c12 | inconclusive: 22.4 µM [inhibitor, partial curve] |
| CC1=NN(C(=O)c2ccccc2)C(O)(c2ccc(Br)cc2)C1 (configuration not stated) | inconclusive: 9.92 µM [inhibitor, partial curve] |
| O=C(CCCN1C(=O)/C(=C/c2ccccc2)SC1=S)Nc1ccc(O)cc1 | inconclusive: 5.62 µM [inhibitor, partial curve] |
| CCN1CCN(c2ccc(N=Cc3ccc(O)cc3O)cc2)CC1 | inconclusive: 7.03 µM [inhibitor, full curve] |
| CCn1c(=O)n(CC)c2cc(N3CCCC3)c(NC(=O)c3ccccc3Br)cc21 | inconclusive: 11.2 µM [inhibitor, single point] |
| Nc1sc2c(c1C(=O)NC1CCS(=O)(=O)C1)CCC2 (configuration not stated) | inconclusive: 31.4 µM [inhibitor, single point] |
| CC(C)c1ccc(O)c(N)c1 | active: 10 µM |
| Cc1c(Cl)c(C(=O)NNC(=S)Nc2ccccc2)nn1C | inconclusive: 50.1 µM [inhibitor, single point] |
| COc1ccc(S(=O)(=O)Nc2ccc(O)c(Sc3nc4ccccc4s3)c2)cc1 | inconclusive: 22.4 µM [inhibitor, single point] and inconclusive: 15.8 µM [inhibitor, partial curve] |
| O=C(Nc1cccc(Cl)c1)N1Cc2ccccc2Oc2ncccc21 | inactive |
| Cc1ccc(S(=O)(=O)N/N=C2/CC(=O)CC(C)(C)C2)cc1[N+](=O)[O-] | inconclusive: 25.1 µM [inhibitor, partial curve] |
| CCSc1nc2sc3c(c2c(=O)n1-c1ccccc1)CCN(C(C)C)C3 | inconclusive: 35.5 µM [activator, single point] |
| O=C(NNc1ccccc1)C(CCO)C(=O)NNc1ccccc1 | inconclusive: 3.98 µM [inhibitor, full curve] |
| CN(C)CCCNc1oc(/C=C/c2ccccc2)nc1C#N | inconclusive: 39.8 µM [inhibitor, partial curve] |
| COc1ccc2nc(C)cc(SCC(=O)N/N=C/c3ccc(O)c(O)c3)c2c1 | active: 7.03 µM |
| COc1ccc(NC(=O)C/C(C)=N/NC(=O)C(=O)Nc2cccc(Cl)c2C)c(OC)c1 | inconclusive: 28.2 µM [inhibitor, single point] |

| SMILES | Potency |
| --- | --- |
| Cc1cccc(N2C(=O)C(Cl)=C(Nc3c(C)n(C)n(-c4ccccc4)c3=O)C2=O)c1C | inconclusive: 28.2 µM [inhibitor, single point] |
| Oc1ccc(-c2nc3cnccn3c2Nc2ccc3c(c2)OCCO3)cc1 | active: 15.7 µM |
| C/C(=N\NC(=O)C(=O)N/N=C(\C)c1cccc(O)c1)c1cccc(O)c1 | inconclusive: 31.6 µM [inhibitor, single point] |
| Oc1ccccc1Nc1nc(-c2ccccc2)c2cc(Cl)ccc2n1 | inconclusive: 2 µM [inhibitor, full curve] |
| O=C(c1ccc(Cl)cc1)N1N=CCC1(O)c1ccc(Cl)cc1 (configuration not stated) | inconclusive: 39.8 µM [inhibitor, single point] |
| COc1ccc(N2CCN(C(=O)c3cc4c(-c5ccccc5F)nn(C)c4s3)CC2)cc1 | inactive |
| O=C(NNC(=S)NC1CC2C=CC1C2)c1ccncc1 (configuration not stated) | inconclusive: 39.5 µM [inhibitor, single point] |
| COc1ccc2[nH]c(CN3CCN(CC(C)C)C(CCO)C3)c(C)c2c1 (configuration not stated) | inconclusive: 39.5 µM [inhibitor, single point] |
| COc1cc(C2C3=C(CC(C)(C)CC3=O)OC(N)=C2[N+](=O)[O-])ccc1O (configuration not stated) | inconclusive: 28.2 µM [inhibitor, partial curve] |
| CCCCCCn1c(CN2CCN(C)CC2)nc2c1c(=O)n(C)c(=O)n2C | inconclusive: 1.26 µM [inhibitor, full curve] |
| CCOC(=O)c1c(C)[nH]c(C=Nc2ccc(OC)cc2)c1O | active: 8.91 µM |
| O=C(NNC(=S)NC(=O)c1ccccc1[N+](=O)[O-])c1ccccc1 | inconclusive: 39.5 µM [inhibitor, single point] |
| O=C1N/C(=N/O)S/C1=C/c1cccnc1 | inconclusive: 8.84 µM [inhibitor, partial curve] |
| O=C1OC(/C(=C\Nc2cc(Cl)ccc2O)[N+](=O)[O-])c2ccccc21 (configuration not stated) | inconclusive: 39.8 µM [inhibitor, partial curve] |
| Cc1ccn2cc(-c3cc4ccccc4oc3=O)nc2c1 | inactive |
| C=CCNC(=S)NNC(=O)C(CCCC)CC(C)(C)O (configuration not stated) | inconclusive: 50.1 µM [inhibitor, single point] |
| O=C1Cc2cc(S(=O)(=O)N3CCN(c4ccccc4)CC3)ccc2N1 | active: 2.6 µM |
| COCCn1c(=S)[nH]c2ccc(N(C)C)cc2c1=O | inconclusive: 31.6 µM [inhibitor, partial curve] |
| Cn1c(=O)c2c(=O)cc(NNC(=O)C(C)(C)C)[nH]c2n(C)c1=O | inconclusive: 19.8 µM [inhibitor, partial curve] |
| O=C(O)c1ccc2ncc(NC(=O)c3ccc(F)cc3)c(=O)n2c1 | inactive |
| Cc1cc(C)cc(N=Cc2[nH]c3ccc(Br)c(Cl)c3c2O)c1 | inconclusive: 31.6 µM [inhibitor, single point] |
| CC(=O)c1c(-c2ccccc2)[nH]c2ccccc12 | inactive |
| Nc1nc(N2CCN(c3ccc(F)cc3)CC2)n[nH]1 | inconclusive: 3.16 µM [inhibitor, full curve] |
| N#CC1=C(N)Oc2cc(O)ccc2C1c1ccncc1 (configuration not stated) | inactive |

| SMILES | Potency |
| --- | --- |
| CCC(Cn1nnc2ccccc2c1=O)NC(=O)Nc1cccc(C)c1C (configuration not stated) | inactive |
| O=C(O)c1ccc(CNCc2ccc(Cl)cc2)s1 | inactive |
| O=C(NNC(=S)Nc1ccc(F)c(Cl)c1)C1CC1 | inconclusive: 25.1 µM [inhibitor, partial curve] |
| Oc1ccc(/C=N/Nc2ccnc3cc(Cl)ccc23)cc1O | active: 44.7 µM |
| Oc1c(C=Nc2cccnc2)sc2ccccc12 | inconclusive: 24.9 µM [inhibitor, partial curve] |
| Cc1c(NCc2nc3ccccc3[nH]2)c(=O)n(-c2ccccc2)n1C | active: 11.1 µM |
| O=C(O)c1cc2c(ccc3ccccc32)o1 | inactive |
| COc1ccc(C(=O)N/N=C(\C)CC(=O)Nc2ccc(N(C)C)cc2)c(OC)c1 | inconclusive: 28.2 µM [inhibitor, partial curve] |
| CC(=O)Nc1cccc(NC(=O)CN2C(=O)CCSc3ccccc32)c1 | inactive |
| O=c1[nH]c(NNC(=S)NC2CCCCC2)nc2c1C1(CCCC1)Cc1ccccc1-2 | inconclusive: 14.1 µM [inhibitor, partial curve] |
| CCCS(=O)(=O)Nc1c(C(=O)O)[nH]c2ccccc12 | active: 3.55 µM |
| COc1ccc2oc(=O)c(C(=O)C[n+]3cccc(C)c3)cc2c1 | inconclusive: 50.1 µM [inhibitor, partial curve] |
| Cc1ccc(-c2nc3cnccn3c2Nc2ccc3c(c2)OCO3)o1 | active: 7.94 µM |
| O=C(CSCc1cc(=O)[nH][nH]1)Nc1ccc(F)cc1 | inconclusive: 126 µM [inhibitor, partial curve] |
| O=C(CCl)NNc1cccc(Cl)n1 | active: 20 µM |
| C/C(=N\NC(=O)c1ccc(O)cc1O)c1cccnc1 | inconclusive: 28.2 µM [inhibitor, partial curve] |
| COC(=O)CCCCC1SCC(NC(=O)c2ccccc2)C1=O (configuration not stated) | inconclusive: 50.1 µM [inhibitor, partial curve] |
| COC(=O)C(NNc1ccccc1)(NC(=O)c1ccccc1F)C(F)(F)F (configuration not stated) | inconclusive: 31.6 µM [inhibitor, partial curve] |
| COc1ccc(-c2nc(-c3ccc(O)cc3O)cs2)cc1OC | inconclusive: 39.5 µM [inhibitor, partial curve] |
| COc1cc(CN(C(=O)c2ccccc2)c2ccccn2)cc(OC)c1OC | inactive |
| O=C(CC(c1ccccc1)c1cc(Br)ccc1O)NCCN1CCOCC1 (configuration not stated) | inactive |
| CO/N=C1\CCCc2c(C(=O)NN)sc(SC)c21 | inconclusive: 19.8 µM [inhibitor, partial curve] |
| CC(C)(C)C(=O)[C@@H]1[C@@H]2C(=O)N(Cc3ccccc3)C(=O)[C@@H]2[C@H]2c3ccccc3C=CN12 | inconclusive: 28 µM [activator, single point] |
| Cc1cccc(C(=O)NC(=S)NNC(=O)c2cccs2)c1 | inconclusive: 44.7 µM [inhibitor, single point] |
